Results reported in PubChem BioAssay (NCI).
Several values for one entry are separate records, joined by “and”; a condition that tells them apart may be missing. Equal values may be shown once.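 Results reflect a 48-hour exposure of cells in 96-well plates to compound at five concentrations. GI50 is the concentration that inhibits growth by half. TGI is the concentration that stops growth completely.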

Tested on: NCI-H322M lung
Assay: NCI-60 cell line screen, 48 h

Row | SMILES | TGI | GI50
1 | C=C(C(=O)O)[C@@H]1C[C@@H](OC(C)=O)[C@]2(C)CC/C=C(\C)CCC[C@H](C)[C@H](O)[C@@H]1O2 | > 100 µM | –
2 | COC(=O)[C@H](Cc1c[nH]c2ccccc12)NC(=O)c1ccc(CNC(=O)/C(C)=C/c2ccccc2)cc1 | > 100 µM | –
3 | CC1C[C@]2(C)C(=NCCN)Nc3ccccc3[C@@H]2N(C)c2ccccc21 (stereo partly drawn) | 23 µM | –
4 | O=C(O)CC(NC(=O)CP(=O)(O)O)C(=O)O (stereo not drawn) | > 10000 µM | –
5 | CC1=NC(=Cc2cc(Br)cc(Br)c2)C(=O)N1n1c(-c2ccccc2)nc2ccccc2c1=O | > 100 µM | –
6 | CN1C(=O)c2ccccc2OC12C=Cc1ccc(O)cc1O2 (stereo not drawn) | > 100 µM | –
7 | Cc1c(C)n(-c2ccccc2)c2nc(S(C)(=O)=O)nc(S(C)(=O)=O)c12 | 32.9 µM | –
8 | COc1ccc(-c2csc(Cc3nc4ccccc4c(=O)n3-c3ccc(Cl)cc3)n2)cc1 | 72.9 µM | –
9 | Cc1ccc(C)c(N=C2NC(=O)C(CC(=O)Nc3ccc(Cl)cc3Cl)S2)c1 (stereo not drawn) | > 100 µM | –
10 | COc1ccc2c(c1)nc1n2C(c2c(Cl)cccc2Cl)SC1 (stereo not drawn) | > 100 µM | –
11 | CN1CCc2c(sc3ncn(C)c(=N)c23)C1 | > 100 µM | –
12 | Cc1cccc(C)c1NC(=O)C(=O)C(C(=O)c1ccccc1-c1ccccc1)C1OC(=O)c2ccccc21 (stereo not drawn) | 73.1 µM | –
13 | O=C(c1ccccc1)c1c(-c2ccccc2)n(-c2ccccc2)[nH]c(=O)c1=O | > 100 µM | –
14 | COc1cc(N=Nc2cccc(S(=O)(=O)O)c2)ccc1N=Nc1ccc(/C=C/c2ccc(-n3on3-c3ccc(/C=C/c4ccc(N=Nc5ccc(N=Nc6cccc(S(=O)(=O)O)c6)cc5OC)cc4S(=O)(=O)O)c(S(=O)(=O)O)c3)cc2S(=O)(=O)O)c(S(=O)(=O)O)c1 | > 100 µM | –
15 | COc1ccc(NC(=O)N(C)CC2(O)CCC(C(C)(C)C)CC2)cc1 (stereo not drawn) | > 100 µM | –
16 | CC[C@H]1CN2CCc3cc(OC)c(OC)cc3[C@@H]2C[C@@H]1C[C@H]1NCCc2c1[nH]c1ccc(O)cc21 | 0.123 µM and 0.445 µM and 1.03 µM | 0.0262 µM and 0.051 µM
17 | O=C(CCc1cc(O)ccc1O)OCCc1ccccc1 | > 100 µM | –
18 | CCOC(=O)/C=C/[C@H](O[Si](CC)(CC)CC)C(C)(C)C | > 100 µM | –
19 | O=C(O/C=C\OC1CCCC1(c1ccccc1)c1ccccc1)c1ccccc1 (stereo not drawn) | 48.6 µM | –
20 | Cc1ccc(-c2n[nH]c(=O)n2/N=C\c2ccc([N+](=O)[O-])cc2)cc1 | > 100 µM | –
21 | O=c1cc(CO)oc(C(O)c2ccccc2)c1O (stereo not drawn) | > 100 µM | –
22 | O=C1/C(=C/c2cccc(Br)c2)Cc2ccccc21 | > 100 µM | –
23 | CSc1ccc2c(c1)C(=O)c1c-2n(CCCBr)c(=O)c2cc([N+](=O)[O-])ccc12 | > 100 µM | 31.4 µM
24 | COc1ccc(-c2nc(-c3cc4c(ccc5ccccc54)oc3=O)cs2)cc1 | > 100 µM | –

Row | SMILES | TGI | GI50
25 | CC(C)C(=O)Nc1nc2c(ncn2C2OC(CO)C(O)C2O)c(=O)[nH]1 (stereo not drawn) | > 100 µM | –
26 | c1ccc([P+](CC[P+](c2ccccc2)(c2ccccc2)c2ccccc2)(c2ccccc2)c2ccccc2)cc1 | > 100 µM | –
27 | O=C(O)c1ccc(OCc2ccccc2)c(Cl)c1 | > 100 µM | –
28 | COc1ccc(C2OC(N)=C(C#N)C3=C2CCCC3C)cc1OC (stereo not drawn) | > 100 µM | –
29 | O=S(=O)(c1ccccc1)C1CN2OC1(S(=O)(=O)c1ccccc1)CC2c1ccc(Br)cc1 (stereo not drawn) | > 100 µM | –
30 | CC(=O)N(CCc1ccccc1)C(C#N)c1ccccc1 (stereo not drawn) | > 100 µM | –
31 | CCn1c(=O)c2c(=O)c3c4c(oc3oc2c2ccccc21)C(=O)c1ccccc1C4=O | > 100 µM | > 100 µM
32 | CC(=O)O[C@H]1CC[C@@]2(C)C(=CC[C@@H]3[C@@H]2CC[C@]2(C)NC(=O)/C(=C\c4ccccc4)C[C@@H]32)C1 | 30.9 µM | –
33 | COc1cc(C(C)=O)cc(C(=O)N(C(C)C)C(C)C)c1[Si](C)(C)C | > 100 µM | –
34 | CC(=O)Oc1ccc2c(c1)c1c(=O)oc(C)nc1n2Cc1ccccc1 | > 100 µM | –
35 | O=CN1CCN(CC(O)CN2CCCCC2)CC1 (stereo not drawn) | > 100 µM | –
36 | COc1ccc(CCNC(=O)c2ccc(NC3=C(Cl)C(=O)N(Cc4ccccc4)C3=O)cc2)cc1OC | 58.5 µM | 22.9 µM
37 | O=C(O)c1nc2ccc(C(F)(F)F)cc2nc1NCc1ccc(F)cc1 | 84.6 µM | –
38 | NCCSc1nc(-c2ccccc2)c(-c2ccccc2)o1 | > 100 µM | –
39 | O=c1oc2ccccc2cc1-c1cn2ccccc2n1 | 23.1 µM | –
40 | O=C1c2cccc3cccc(c23)C(=O)N1CCCNCCCNCCCCNCCCNCCCN1C(=O)c2cccc3cccc(c23)C1=O | 12.7 µM | –
41 | CCOC(=O)c1c(NC(=O)c2cccc(C(F)(F)F)c2)sc2c(CN(C)C)c(O)ccc12 | 31.6 µM | 6.42 µM
42 | O[C@H](c1cc(C(F)(F)F)nc2c(C(F)(F)F)cccc12)[C@@H]1CCCCN1 | 14.6 µM | 4.95 µM
43 | CN[C@@H](C)[C@@H](NC)c1ccccc1 | > 100 µM | –
44 | [N-]=[N+]=NC1C(O)C(CO)OC1n1ccc(=O)[nH]c1=O (stereo not drawn) | > 875 µM | –
45 | Cc1cn(C2CC(O)C(CO[Si](C)(C)C(C)(C)C)OC2OC(C)C)c(=O)[nH]c1=O (stereo not drawn) | > 100 µM | –
46 | CC(C)CC(NC(=O)C(CI)Cc1ccccc1)C(=O)Nc1ccccc1 (stereo not drawn) | > 100 µM | –
47 | Cc1ccccc1N/C(=C(/C(Cl)=C(Cl)Cl)[N+](=O)[O-])n1nnc2ccccc21 | 63.5 µM | –
48 | O=C(/C=C/c1ccccc1Cl)NC1C=Nc2ccc([N+](=O)[O-])cc2NC1 (stereo not drawn) | > 100 µM | –

Row | SMILES | TGI | GI50
49 | C=C1C(=O)O[C@H]2[C@H]1CC/C(COC(=O)/C=C\C(=O)NCc1ccc(Cn3c(=O)sn(CCCC)c3=O)cc1)=C\CC[C@@]1(C)O[C@@H]21 | 2.9 µM | 1.53 µM
50 | COC(=O)[C@H]1C=C[C@@H](C)n2c(=O)c3cc4ccccc4cc3c(=O)n21 | > 100 µM | –
51 | COc1ccc(-n2c(C)cc(-c3ccccc3)c2C)cc1 | > 100 µM | 16.1 µM
52 | Cc1[nH]c(/C=C2\C(=O)Nc3ccccc32)c(C)c1CCC(=O)O | > 100 µM | 19.1 µM
53 | COc1cc(N(CCC#N)CCC#N)ccc1/C(N=Nc1ccccc1C)=N\NC(=O)c1ccc(C)cc1 | > 100 µM | –
54 | Cc1cc(C)c(NC(=O)c2sc3nc4c(cc3c2N)CN(Cc2ccccc2)CC4)c(C)c1 | > 100 µM | 8.65 µM
55 | S=c1[nH]c(=S)c2nnn(-c3ccccc3)c2[nH]1 | > 100 µM | –
56 | COc1ccc2[nH]c3c(c2c1)CC(=S)N1CCCC(CC3=O)C1 (stereo not drawn) | > 100 µM | –
57 | O=S(=O)(Nc1ccc(F)cc1F)c1ccc(-c2cnc(C3CC3)o2)cc1 | > 100 µM | 4.69 µM
58 | N#Cc1c(N/N=C/c2ccc(Cl)cc2Cl)nc(N)nc1N1CCCC1 | > 100 µM | 60.4 µM
59 | O=C(Nc1nncs1)NS(=O)(=O)n1c(=S)sc2ccccc21 | > 100 µM | –
60 | CCC(C)C1NC(=O)C(NC(=O)c2c3[nH]c4c(C(=O)NC5C(=O)NC(C(C)CC)C(=O)N6CCCC6C(=O)N(C)CC(=O)N(C)C(C(C)C)C(=O)OC5C)ccc(C)c4oc-3c(C)c(=O)c2=O)C(C)OC(=O)C(C(C)C)N(C)C(=O)CN(C)C(=O)C2CCCN2C1=O (stereo not drawn) | 69.4 µM | –
61 | CN(C)c1ccc(/C=N\NC(=O)Nc2cccc3ccccc23)cc1 | 57.1 µM | –
62 | CCCCSC1=N/C(=C\c2ccco2)C(Cl)=N1 | > 100 µM | –
63 | O=C(NCCCl)N(O)C(=O)Nc1ccccc1 | > 100 µM | –
64 | CCOC(=O)CO/N=C1/C(c2c(O)[nH]c3ccccc23)=Nc2ccccc21 | > 100 µM | –
65 | Cc1c(O)c(OC2OC(CO)C(O)C(O)C2O)cc2c1CC[C@@H]1C2(C)C(=O)C[C@]2(C)[C@@H]([C@@](C)(O)C(=O)CCC(C)(C)O)[C@H](O)C[C@@]12C (stereo partly drawn) | > 100 µM | –
66 | COC1(OC)CC2C(=O)N(Cc3ccccc3)C1C=C2S(=O)(=O)c1ccccc1 (stereo not drawn) | > 100 µM | –
67 | N#CC1=C(N)Oc2cc(O)ccc2C1c1cccc2ccccc12 (stereo not drawn) | 33.9 µM | 17.4 µM
68 | CNC(=S)N=Nc1c(O)n(CN2CCOCC2)c2ccc([N+](=O)[O-])cc12 | 46.8 µM | –
69 | C#CC(C)(C)OC(=O)C(=[N+]=[N-])C(C)=O | > 10 µM | –
70 | CCOc1ccncc1[N+](=O)[O-] | > 100 µM | –
71 | CCCN1CN(C(C(=O)N[C@@H]2C(=O)N3C2SC(C)(C)C3C(=O)O)c2ccc(O)cc2)CSC1=S (stereo partly drawn) | > 100 µM | –
72 | NC(=O)OCCn1cc(-c2nc(-c3c[nH]c4ncccc34)cs2)c2ccccc21 | 10.7 µM | 1.95 µM

Row | SMILES | TGI | GI50
73 | COC(=O)C1=C(C(=O)Nc2cccnc2Cl)N(c2ccc(OC)cc2[N+](=O)[O-])C(c2ccc(C)cc2)=CC1c1ccc(OC)cc1OC (stereo not drawn) | > 70.2 µM | –
74 | CCn1sc2ccccc2c1=O | > 54.1 µM | –
75 | COc1cc(C(=O)N2CCN(c3ncccn3)CC2)c(N)cc1OCc1ccccc1 | > 100 µM | > 100 µM
76 | CCOC(=O)/C=C(/C)Sc1cc(O)c2ccccc2c1O | 13 µM | 3.04 µM
77 | Cc1ccc(S(=O)(=O)c2ccc(N)cc2)cc1 | > 100 µM | –
78 | COc1c[c]([Hg][O]C(C)=O)c(OC)c(NC(=O)CC(C)=O)[c]1[Hg][O]C(C)=O | 30.8 µM | 17.1 µM
79 | CC(CO)CCNc1ncnc2c1ncn2CCC(=O)OC(C)(C)C (stereo not drawn) | > 100 µM | –
80 | CCN(Cc1ccccc1C)c1ccc(CO)c(Cl)c1 | 27.6 µM | 12.7 µM
81 | C#COc1cccc(Nc2c(C#N)cnc3ncc(NC(=O)CCl)cc23)c1 | > 62.5 µM | > 62.5 µM
82 | Cc1cc(C)c(C[C@H]2COC(=O)[C@]2(O)Cc2c(C)cc(C)cc2C)c(C)c1 | 35.4 µM | –
83 | O=[N+]([O-])/C(C(Cl)=C(Cl)Cl)=C(/Nc1ccccc1)SCc1ccccc1 | 69.5 µM | –
84 | C=C1C(=O)OC2CC(C)C3(O)CCC(=O)C3(C)CC12 (stereo not drawn) | > 100 µM | –
85 | CC(C)(C)OC(=O)NC(Cc1ccc(OC(C)(C)C)cc1)C(=O)N[C@H]1CCC[C@H]1C(=O)NC(Cc1ccccc1)C(=O)N1CCCC1C(N)=O (stereo partly drawn) | > 100 µM | –
86 | CCN1CCC(O)(/C=C/c2ccc(C)cc2)C(C(=O)/C=C/c2ccc(C)cc2)C1 (stereo not drawn) | 25.8 µM | –
87 | COC(=O)/C=C1\CCC(C)O1 (stereo not drawn) | > 100 µM | –
88 | CCC1CCc2c(c(=O)oc3c2cc(OC)c2cccc(OC)c23)C1 (stereo not drawn) | > 100 µM | –
89 | CCOC(=O)c1nc2ccc(C(F)(F)F)cc2[nH]c1=O | > 100 µM | –
90 | CC(=O)[O][Ga]([Br])[O]C(C)=O | > 100 µM | > 100 µM
91 | Cc1cc(C)nc(NS(=O)(=O)c2ccc(NC(=O)c3cccc4c(Nc5ccc(S(N)(=O)=O)cc5)c5ccccc5nc34)cc2)n1 | 47 µM | –
92 | CC1=C(C(=O)Nc2ccc(Cl)c(Cl)c2)C(c2cccc(Oc3ccccc3)c2)NC(=O)N1 (stereo not drawn) | 19 µM | 8.1 µM
93 | O=C1NC(=O)/C(=C\c2ccccc2)C2=C1CCCC2 | 30.4 µM | 16 µM
94 | CC(O)CCCCC(O)CCC[C@H](O)[C@H]1CCC([C@H]2CCC([C@@H](O)CCCCCCCCCCCCC3=C[C@H](C)OC3=O)O2)O1 (stereo partly drawn) | 24.7 µM | –
95 | NC(=O)c1cc(S(=O)(=O)Nc2nnc(-c3ccccc3)c(-c3ccccc3)n2)c(SCc2ccccc2)cc1Cl | > 100 µM | 34.2 µM
